Results as given in PubChem BioAssay AID1508623 (National Center for Advancing Translational Sciences (NCATS), 2021).
About 450 (0.94%) of roughly 48,000 compounds were called active. Roughly 19% stayed inconclusive and do not appear here. Calls come from the whole dose curve; as a rule, active = well fitted inhibition curve with a large enough effect; inconclusive = small, poorly fitted or top-dose-only effect; inactive = no such curve, though single readings can be large or run the other way. This is one part of the list.

assay: Primary qHTS for Identification of Small Molecule Inhibitors of Huntingtin Promoter Activity; conditions: HEK293 HTT promoter firefly luciferase reporter (activity 0% = vehicle and -100% = no light), 24 h; series mostly up to 57.5 µM; activity change, negative = inhibition: at the top concentration; note: nearly all actives have a fitted effect of over 50% in size
Outline: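 Luminescence was read after Dual-Glo reagent and a 10 min room-temperature incubation. Values were normalized to vehicle (0% activity) and zero RLU (-100% activity). Reporter HEK293 cells had been exposed to compounds (up to 57.5 uM final) for 24 h.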

Activity change, negative = inhibition, inactive:
COc1ccc(-c2cn3nc(N4CCCC(C(=O)NCCCOC(C)C)C4)sc3n2)cc1 (stereo not given) -19.5%, CCCN(CCC)c1cc(C)nc2nc(-c3ccc(Cl)cc3)nn12 -3.65%, Cc1ccc(C(=O)CSc2nc(-c3ccccc3)nc3c2CCCC3)cc1C -8.62%, CC1=C(C(=O)Nc2ccc(C)cc2C)C(c2cccs2)n2nc(SCc3ccc(Cl)cc3)nc2N1 (stereo not given) 11.1%, COc1ccc(-c2csc3ncnc(Nc4cccc(F)c4)c23)cc1 -16.2%, CC(=O)c1ccc(NC(=O)CC2Sc3ccccc3NC2=O)cc1 (stereo not given) -7.57%, Cc1cc(Oc2nc3ccccn3c(=O)c2/C=C(\C#N)c2nc3ccccc3s2)ccc1Cl -0.533%, Cc1ccc(CSc2nc3cccnc3n2Cc2ccc(C(=O)NCc3cccs3)cc2)cc1 -10.4%, Cc1nc2nc(NC(=O)C(C)C)[nH]n2c(=O)c1Cc1ccccc1 0.51%, Cc1ccc(NC(=O)C2CCN(C(=O)c3cnn(-c4ccccc4)c3-n3cccc3)CC2)cc1Cl -4.23%, COc1cc(Cl)c(C)cc1NC(=O)CCn1cnc2onc(-c3ccc(F)cc3)c2c1=O -2.23%, CC(CNC(=O)Cn1c(-c2cccs2)cc2cc(Cl)ccc21)c1ccccc1 (stereo not given) -15.4%, COCC(C)NS(=O)(=O)c1ccc(N2CCCCS2(=O)=O)cc1 (stereo not given) -35.7%, CCOC(=O)c1ccc(NC(=O)c2sc3nc4n(c(=O)c3c2C)CCC4)cc1 -16.6%, CCN1C(C(=O)c2ccccc2)=C(NC(=O)c2ccc(Cl)cc2)c2ccccc2S1(=O)=O -28.5%, Cc1ccc2c(CC(=O)Nc3c(C(=O)c4ccc(F)cc4)oc4ccccc34)coc2c1C 6.69%, CC(C)c1ccc(NC(=O)C(Cc2ccccc2)n2cccc2)cc1 (stereo not given) -19.8%, Cc1ccc(C)c(S(=O)(=O)c2cn(Cc3ccccc3)c3cc(N4CCCC4)c(F)cc3c2=O)c1 -29.4%, CCOc1ccc(NC(=O)Cn2c(=O)n(CC(=O)NCCc3ccccc3)c(=O)c3sccc32)cc1 -9.9%, Cc1ccc(-n2ccn(CC(=O)c3ccc(F)cc3)c(=O)c2=O)cc1C -13.1%, Cc1ccc(-n2[nH]c(C)c(N=Nc3cccc(-c4cccc(C(=O)O)c4)c3O)c2=O)cc1C 1.15%, CCOC(=O)c1ccc(N2C(=O)c3[nH]nc(-c4ccccc4)c3C2c2ccc(C(C)C)cc2)cc1 (stereo not given) -20.2%, COc1ccc2c(CNCCc3ccco3)c(C(=O)O)n(Cc3ccc(F)cc3)c2c1 -21.4%, CC(=O)Nc1nonc1-c1nnc(SCC(=O)Nc2c(C)cccc2C)n1-c1ccccc1 -13.9%, CCn1cc(C(=O)NCc2ccc(Cl)cc2)c(=O)c2cc(S(=O)(=O)N3CCc4ccccc4C3)ccc21 3.02%, COc1ccc(C)cc1NC1(c2ccccc2)C(=O)c2ccccc2C1=O -9.12%, COc1ccc(OC)c(N(C)S(=O)(=O)c2ccc3c(c2)NC(=O)CC(=O)N3)c1 -4.11%, CN(C)c1ccc(NC(=O)CC(NCc2cccnc2)C(=O)O)cc1 (stereo not given) -7.32%, Cc1ccccc1NC(=O)c1sc2nc3n(c(=O)c2c1C)N=C(c1ccccc1)CS3 -10.3%, Cc1ccc(NC(=O)CCCn2c(=O)c3cccn3c3cccnc32)c(C)c1 -4.01%, COc1cccc(CNc2sc3c(c2C(=O)Nc2ccc(OC)cc2OC)CCC3)c1 -9.45%, CCC(Sc1nc2nccnc2c(=O)n1Cc1ccc(Cl)cc1)C(=O)NC1CCCCC1 (stereo not given) -15.7%, COc1ccc(-n2ccn3c(CC(C)(C)CC(=O)O)nnc3c2=O)cc1 -12.3%, O=c1c(-c2cc(-c3ccccc3)nc3c2COc2ccc(Cl)cc2-3)coc2ccccc12 -6.28%, CCOc1ccc(NC(=O)c2cnn3c2NC(C)=C(C(=O)Nc2ccc(Cl)cc2)C3c2ccc(OC)c(OC)c2)cc1 (stereo not given) -10.1%, O=C(O)C(=O)Nc1cccc(C2=NN=N[N]2)c1 -1.18%, CC(C)CNC(=O)C(=O)Nc1c2c(nn1-c1ccc(Cl)cc1)CSC2 -23%, CC(=O)c1ccc(NC(=O)CSc2nccn2C2CCCC2)cc1 -8.77%, Cc1cccc(N2CCN(c3ccc4cc(S(=O)(=O)N5CCC(C)CC5)ccc4n3)CC2C)c1 (stereo not given) -3.38%, CCOc1ccc(NC(=O)CSc2nc3ccccc3nc2N2CCOCC2)cc1 -26.7%, COc1ccc(CNC(=O)c2cc3cccc4c3n2CC(C)S4)cc1 (stereo not given) -21.1%, COc1ccc(S(=O)(=O)NC(C)(C)CO)cc1-c1nnc2c3ccccc3c(C)nn12 -5.01%, O=c1c(N2CCN(c3ccc(F)cc3)CC2)csc2ccc(F)cc12 1.44%, CCCn1c(=O)c2sccc2n2c(CCCC(=O)N3CCN(c4ccc(OC)cc4)CC3)nnc12 -25.3%, Cc1nn(-c2cccc(Cl)c2)c2nc(-c3cccnc3)cc(C(F)(F)F)c12 -9.11%, CCOCCCNC(=O)CN1C(=O)COc2ccc(S(=O)(=O)N3CCOCC3)cc21 -8.68%, COc1ccc(-c2cc(C(F)(F)F)nc(SCCC(=O)Nc3ccc(F)cc3F)n2)cc1 -13.5%, CC(=O)c1ccc(NC(=O)CSc2nnc3c(n2)[nH]c2ccccc23)cc1 -21.4%, O=C(Nc1ccc(F)cc1F)c1ccc(-n2cnc3cccnc32)cc1 -2.55%, CCOC(=O)c1ccc(O)cc1 4.81%, O=C(CCC1N=C2c3ccccc3N=C(SCc3ccc(F)cc3)N2C1=O)N1CCN(c2ccccc2)CC1 (stereo not given) -3.87%, COc1ccc(N2CCN(C(=O)CCCCn3c(=O)[nH]c4ccsc4c3=O)CC2)cc1 -17.9%, Clc1ccc(-c2nc3ncccn3c2Nc2ccc3c(c2)OCCO3)cc1 5.76%, COC(=O)c1c(SCC(=O)Nc2ccccc2C(F)(F)F)[nH]c2ccc(Cl)cc2c1=O -9.74%, CCOC(=O)C1CCN(C(c2ccc(C)cc2)c2sc3nc(-c4ccco4)nn3c2O)CC1 (stereo not given) 0%, CCOc1ccc(/C=C(\C#N)C(=O)Nc2sc3c(c2C(=O)OC)CCC3)cc1OC -2.54%, Cc1cccc(Nc2cc(C)nc3nc(-c4ccccc4)nn23)c1 -14%, CC1=C(C(=O)Nc2cccc(F)c2)C2(CCCCC2)OC1=O -21.6%, Cc1ccc(-c2nc(CCNC(=O)C(=O)Nc3ccc(C)c(Cl)c3)cs2)cc1 3.87%, COc1ccccc1C(=O)Nc1ccccc1C(=O)OCc1cc(=O)n2ccsc2n1 -8.53%, CCOC(=O)c1sc(NC(=O)c2nc3nc(C)cc(C(F)F)n3n2)c(C(=O)OC(C)C)c1C -1.11%, CC(C)(C)NC(=O)[C@@H]1CN(Cc2cccnc2)CCN1C[C@@H](O)C[C@@H](Cc1ccccc1)C(=O)N[C@H]1c2ccccc2C[C@H]1O 4.04%, CCCN(CCC)C(=O)Cn1c(SCc2cccc(F)c2)nc2cccnc21 -11.1%, Cc1nc(-c2ccc(F)cc2)sc1CCNC(=O)c1ccccc1C(F)(F)F -35.2%, Cc1ccc(CNC(=O)c2cc3c(=O)n4cccc(C)c4nc3s2)cc1 -8.89%, Cc1ccc(CNC(=O)CN2C(=O)C3CCCCN3c3ccc(C(=O)N(C)C)cc32)cc1 (stereo not given) -5.15%, CC1=C(C(=O)Nc2ccccc2C)C(c2sccc2C)n2ncnc2N1 (stereo not given) -6.87%, Cc1ccc(S(N)(=O)=O)cc1NC(=O)c1c(-c2c(Cl)cccc2Cl)noc1C -18.4%, Cc1cccc(CSc2ncc(Cl)c(C(=O)Nc3nnc(C)s3)n2)c1 -15%, CCN(CC)CCNC(=O)CN1C(=O)CSc2ccc(S(=O)(=O)N3CCOCC3)cc21 -1.61%, Cc1ccccc1CSc1nc2c([nH]c3ccccc32)c(=O)n1-c1ccccc1 -18.7%, CCc1nnc2c(NCc3ccccc3)nc3ccccc3n12 -6.68%, CCOc1ccc(-c2cc(NC(=O)Nc3ccccc3Cl)c(C(=O)OC)s2)cc1 92.7%, Cc1ccc(-c2nnc(Nc3ccc(F)cc3)c3ccccc23)cc1S(=O)(=O)NC(C)C 53.3% [at 11.5 µM], N#Cc1c(C(F)(F)F)cc(-c2cccs2)nc1SCC(=O)Nc1cccc(Br)c1 -21.2%, Cc1ccc(C(=O)N2CCN(c3ccccc3)CC2)cc1NC(=O)c1nsc2ccccc12 -3.28%, CC(C)c1ccc(NC(=O)C2CCCN(S(=O)(=O)c3ccc4[nH]c(=O)oc4c3)C2)cc1 (stereo not given) -20.7%, CCN(CC)S(=O)(=O)c1ccc2c(c1)c(=O)c(C(=O)N1CCN(c3ccc(OC)cc3)CC1)cn2C -1.15%, CCc1ccccc1NC(=O)c1nc2nc(C)cc(C(F)F)n2n1 -7.92%, CCCN(CCC)CCCNC(=O)Cn1ncn2c(cc3sc(CC)cc32)c1=O 3.3%, Cc1ccc(CNC(=O)CN2N=C(c3ccc(C)cc3)CCC2=O)cc1 -3.69%, Cn1c(-c2cccc(Br)c2)cnc1NCc1cccc(F)c1 -20.5%, COc1ccc2cc1Oc1ccc(cc1)C[C@H]1c3c(cc4c(c3Oc3cc5c(cc3OC)CCN(C)[C@@H]5C2)OCO4)CCN1C -16.4%, Cc1cccc(-c2nnc(SCC(=O)Nc3ccc(C)c(C)c3)o2)c1 2.66%, CCCS(=O)(=O)c1c(S(=O)(=O)CCC)c2cc(C(C)(C)C)ccn2c1C(=O)c1ccc(C)cc1 -13.7%, COc1ccc(Nc2nnc(-c3cc4cc(Cl)ccc4oc3=O)s2)cc1 5.18%, COc1cccc(CN2C(=O)c3ccccc3C2C(=O)NCCc2ccccc2)c1 (stereo not given) 13.6%, CCC(C)NC(=O)c1ccc(Cn2c(=O)c3cccn3c3cccnc32)cc1 (stereo not given) 0.421%, COc1cc(SC)ccc1C(=O)N1CCn2c3c(c4cc(C)ccc42)CCCC31 (stereo not given) -8.51%, Cc1ccc(C(=O)Nc2c(C)nc3ccccn3c2=O)cc1 58.2%, O=C(CCCCCn1c(=O)[nH]c2ccsc2c1=O)NCc1ccccc1 -8.79%, CCOc1ccc(CNC(=O)Cn2nc(N3CCN(c4ccccc4)CC3)ccc2=O)cc1 -14.7%, Oc1c(C(c2cccc(Br)c2)N2CCCC2)sc2nc(-c3ccco3)nn12 (stereo not given) 5.06%, Cc1cccc(N2C(=O)C(CC(=O)Nc3ccccc3)N(C3CCCCC3)C2=O)c1 (stereo not given) -27.3%, COc1cccc(C(=O)Nc2nc3nc(C)c(Cc4ccccc4)c(=O)n3[nH]2)c1 -0.533%
